PubChem BioAssay AID360 (National Center for Advancing Translational Sciences (NCATS), 2006)
The campaign covered roughly 48,000 compounds. About 550 (1.1%) were called active. Roughly 4% stayed inconclusive and do not appear here. Cut-off read from the data, not from the text of the source: active = potency below about 15 µM; inconclusive = mostly about 16 µM to 33 µM; inactive = weaker than that. This is one part of the list.

biological target: Lysosomal acid glucosylceramidase (Homo sapiens) (UniProt P04062); test: Glucocerebrosidase; details: purified enzyme, resorufin glucoside fluorescence (screen aimed at inhibitors), 20 min;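 note: the screen sought inhibitors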
Sequence of UniProt P04062 (P04062 whole entry, looked up): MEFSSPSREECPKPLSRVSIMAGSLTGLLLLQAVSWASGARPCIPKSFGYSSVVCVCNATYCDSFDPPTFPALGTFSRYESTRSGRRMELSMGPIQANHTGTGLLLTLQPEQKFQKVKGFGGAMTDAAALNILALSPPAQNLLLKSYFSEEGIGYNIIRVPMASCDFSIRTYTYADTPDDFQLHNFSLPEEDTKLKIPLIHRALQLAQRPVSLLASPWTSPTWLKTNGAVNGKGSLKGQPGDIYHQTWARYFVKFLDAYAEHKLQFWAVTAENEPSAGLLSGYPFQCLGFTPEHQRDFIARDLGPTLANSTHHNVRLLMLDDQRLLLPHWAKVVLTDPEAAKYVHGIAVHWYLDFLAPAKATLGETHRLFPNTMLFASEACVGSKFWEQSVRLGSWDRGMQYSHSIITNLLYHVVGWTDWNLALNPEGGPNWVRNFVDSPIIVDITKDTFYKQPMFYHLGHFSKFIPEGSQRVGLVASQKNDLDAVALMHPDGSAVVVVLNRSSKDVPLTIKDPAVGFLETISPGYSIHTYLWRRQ
Method in brief: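 Normal human glucocerebrosidase (0.2 nM final) was assayed with resorufin β-D-glucopyranoside (30 uM final) in 50mM citric acid/KH2PO4, 10mM sodium taurocholate, 0.01% tween-20, pH 5.9. Compounds were titrated; fluorescence (Ex 548, Em 600) read after 20 min at RT.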
Potency is the fitted concentration of half-maximal effect.

Potency, inactive:
CCN1CCc2c(sc(N)c2C#N)C1 > 76.9 µM, O=C1CC(c2ccco2)Cc2nc(Nc3nc(-c4ccccc4)c4ccccc4n3)ncc21 (stereo not given) > 76.9 µM, c1ccc(CNCCN2CCNCC2)nc1 > 76.9 µM, O=C(Nc1nnc(SCc2ccccc2)s1)c1cccs1, O=C(c1ccc(Br)o1)N1CCN(C/C=C/c2ccccc2)CC1 > 76.9 µM, COc1ccc(OC)c(NC(=O)N[C@@H](Cc2ccccc2)C(=O)O)c1 > 76.9 µM, c1csc(-c2nn[nH]n2)c1 > 76.9 µM, COc1ccc(C(=O)N[C@H]2COC(C)(C)O[C@H]2c2ccccc2)cc1 > 76.9 µM, COc1ccc(N2CCN(CCNC(=O)c3nnc(Cc4c(F)cccc4Cl)o3)CC2)cc1 > 76.9 µM, Cc1nnc(NC(=O)C2C3C=CC(O3)C2C(=O)O)s1 (stereo not given) > 76.9 µM, O=C(Nc1ccccc1C(=O)OC1CCOC1=O)c1ccco1 (stereo not given) > 76.9 µM, CCCOC(=O)C1=C(C)NC2=C(C(=O)CCC2)C1c1cc(OC)ccc1OC (stereo not given) > 76.9 µM, CCOC(=O)c1ccc(NC(=O)NC2CC3CCC(C2)N3Cc2nnnn2C(C)(C)C)cc1 (stereo not given) > 76.9 µM, C/C(N)=C(/C#N)C(=O)CSc1ncnc2ccccc12 > 76.9 µM, O=C(Nc1ccc2c(c1)OCCO2)C1CCCN1S(=O)(=O)c1ccc(Cl)cc1 (stereo not given) > 76.9 µM, COc1ccc(C)cc1S(=O)(=O)N1CCC(C)CC1 > 76.9 µM, CCOc1ccccc1OCC(=O)Nc1ccc(S(=O)(=O)Nc2nc(C)cc(C)n2)cc1 > 76.9 µM, CCc1ccc(N2CC(C(=O)OCC(=O)Nc3cc(C)on3)CC2=O)cc1 (stereo not given) > 76.9 µM, CCOc1ccc2[nH]c(=O)c(CN(Cc3ccco3)C(=O)c3ccc(Br)cc3)cc2c1, c1coc(CNc2nc3ccccc3n2CCN2CCOCC2)c1 > 76.9 µM, CCCCCC(=O)Nc1ccccc1N1CCN(c2ccccc2)CC1 > 76.9 µM, CC(=O)Nc1ccc(Cc2ccncc2)cc1 > 76.9 µM, CC1=C2C(CCS2(=O)=O)CC2(C1)C(=O)OC(C)(C)OC2=O (stereo not given) > 76.9 µM, O=C(Nc1ccccc1)C1CC2CCCC(C1)C2=O (stereo not given) > 76.9 µM, O=C(CSc1nnc(-c2ccc(O)cc2)o1)N1CCOCC1 > 76.9 µM, Cc1nn2c3cc(N4CCOCC4)ccc3nc2c2ccccc12 > 76.9 µM, Nn1c(SCC(=O)Nc2ccc3c(c2)OCO3)nnc1-c1ccncc1 > 76.9 µM, COc1cccc(C2=CC(c3cc(OC)ccc3OC)n3nnnc3N2)c1 (stereo not given) > 76.9 µM, Cc1ccc(S(=O)(=O)c2nc(C)oc2NCc2ccccc2)cc1 > 76.9 µM, CCOc1ccc(NC(=O)CSc2nnc(-c3ccncc3)n2CC2CCCO2)cc1 (stereo not given) > 76.9 µM, C=C(C)c1ccc(C(C)(C)NC(=O)NCc2ccco2)cc1 > 76.9 µM, CC1CCCCN1C(=O)CSc1ccc(-c2ccc(F)cc2)nn1 (stereo not given) > 76.9 µM, CCOc1ccc(CN2CCN(C(=O)c3ccccc3)CC2)cc1 > 76.9 µM, Cc1n[nH]c(C)c1S(=O)(=O)N1CCN(C(=O)c2ccco2)CC1 > 76.9 µM, O=C(Cn1cnc2c(oc3ccccc32)c1=O)NCC1CCCO1 (stereo not given) > 76.9 µM, Cc1ccc(C(=O)C(C)OC(=O)C2CC(=O)N(C3CCCCC3)C2)cc1 (stereo not given) > 76.9 µM, Oc1ccc2cccnc2c1 > 76.9 µM, CCc1cccc(NC(=O)Cn2cccc2)c1 > 76.9 µM, COc1cc(O)c2c(c1)OC(C)(C)CC2=O > 76.9 µM, O=C(CSc1nnc(Cn2cnc3ccccc32)o1)c1ccccc1 > 76.9 µM, O=C(Cc1ccc(Br)cc1)N1CCN(c2ccccc2)CC1 > 76.9 µM, CCOC(=O)C1CCN(C(=O)COc2ccc(N(C)S(=O)(=O)c3cccs3)cc2)CC1 > 76.9 µM, CCOc1ccc(OCC)c(NC(=O)C2CCN(S(=O)(=O)c3cnc[nH]3)CC2)c1 > 76.9 µM, CN1CCn2c1nc(N1CCCCC1)nc2=O > 76.9 µM, O=C(OCc1nnc(-c2ccc(Cl)cc2)o1)c1ccncc1 > 76.9 µM, CC(C)(C)n1ncc2c(=O)n(CC(=O)Nc3ccc4c(c3)OCO4)cnc21 > 76.9 µM, O=C(O)c1cccc(S(=O)(=O)N2Cc3ccccc3C2)c1 > 76.9 µM, CN(C1CCCCC1)S(=O)(=O)c1ccc(Cl)c(C(=O)O)c1 > 76.9 µM, CC(=O)Nc1ccc(S(=O)(=O)Nc2nnc(C3CCCCC3)s2)cc1 > 76.9 µM, COc1ccc(S(=O)(=O)NCCSC(C)(C)C)cc1Cl > 76.9 µM, COc1cc(C(=S)N2CCCC2)cc(Cl)c1O > 76.9 µM, Cn1c(COc2ccc3ccccc3c2)nnc1SCC(=O)O > 76.9 µM, CCOC(=O)C1CCN(c2c(NCc3ccc(C(=O)NC(C)CC)cc3)c(=O)c2=O)CC1 (stereo not given) > 76.9 µM, CC(=O)NC(C)C(=O)OCc1ccc(Cl)cc1Cl (stereo not given) > 76.9 µM, C=CCSc1nc2ccccc2n1Cc1nnc(-c2cccs2)o1 > 76.9 µM, CCC1CCCCN1C(=O)CSc1nnc(CNC(=O)COc2ccc(Cl)cc2)o1 (stereo not given) > 76.9 µM, CCN(CC)S(=O)(=O)c1ccc2c(c1)nc(CCC(=O)OCc1c(C)noc1C)n2C > 76.9 µM, O=C1NC2(CCCCC2)Oc2ccccc21 > 76.9 µM, O=C(O)COc1ccc2occ(C(=O)c3ccccc3)c2c1 > 76.9 µM, O=C(NCCCN1CCCC1)c1cccc(N2CCCC2=O)c1 > 76.9 µM
